# Assay results from PubChem BioAssay AID2101 (National Center for Advancing Translational Sciences (NCATS), 2009).
# The whole screen tested about 330,000 compounds, of which about 300 (0.091%) were called active. Not shown: some 4% with an inconclusive outcome. Calls come from the whole dose curve; as a rule, active = well fitted inhibition curve with a large enough effect; inconclusive = small, poorly fitted or top-dose-only effect, or effect the other way, or another doubt; inactive = no such curve, though single readings can be large or run the other way. The entries are a selection whose mix differs from that of the whole data set.
# Target: Lysosomal acid glucosylceramidase (Homo sapiens) (UniProt P04062)
# Experiment: qHTS Assay for Inhibitors and Activators of N370S glucocerebrosidase as a Potential Chaperone Treatment of Gaucher Disease;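 for activity change, negative = inhibition: 0% = full enzyme activity and -100% = no enzyme basal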
# Conditions: N370S GC spleen homogenate, 4MU-glucoside fluorescence; series mostly up to 59.4 µM; activity change, negative = inhibition: at the top concentration
# Potency is the fitted concentration of half-maximal effect.
SMILES,"activity change, negative = inhibition",Potency
O=C1C2C(c3ccccc3)=NN(c3ccccc3)C2C(=O)N1c1ccccc1 (stereo unspecified),inactive: 21.5%,–
Cc1c(O)cccc1C(=O)N[C@@H](CSc1ccccc1)[C@H](O)CN1C[C@H]2CCCC[C@H]2C[C@H]1C(=O)NC(C)(C)C,–,inactive
Cc1nc(N=Nc2ccc(S(=O)(=O)O)cc2S(=O)(=O)O)c(COP(=O)(O)O)c(C=O)c1O,–,inactive
Oc1ccc(Nc2nc3ccccc3nc2Nc2ccc(O)cc2)cc1,–,active: 4.47 µM
O=C(C1=C[C@H](c2ccc(Br)cc2)C[C@H](OCCCCO)O1)N1CCN(Cc2ccc3c(c2)OCO3)CC1,inactive: -15.4%,–
NC(N)=NCCC[C@H](NC(=O)CC1(CC(=O)N2CCN(C3c4ccccc4NC(=O)c4ccccc43)CC2)CCCC1)C(=O)NCCn1c(=O)n(-c2ccccc2)n(-c2ccccc2)c1=O (stereo partly specified),–,active: 17.8 µM
COCOc1cc(OC)ccc1C(=O)/C=C/c1ccc2c(c1)OCO2,inactive: -8.19%,–
Cc1ccc(C2=N/C(=C/c3cccs3)C(=O)N2Nc2ccccc2)cc1,inactive: 29.6%,–
NS(=O)(=O)c1cc2c(cc1Cl)N[C@@H]([C@@H]1C[C@@H]3C=C[C@H]1C3)NS2(=O)=O,inactive: -12.5%,–
CCCCC[C@H](O)/C=C/[C@@H]1[C@@H](C/C=C\CCCC(=O)O)[C@H](O)C[C@H]1O,–,inactive
CCO[C@@H]1OC(C(=O)N2CCN(Cc3ccc4c(c3)OCO4)CC2)=C[C@H](c2ccc(C(F)(F)F)cc2)[C@H]1CCCO,inactive: -22.3%,–
CC(CN1c2ccccc2Sc2ccccc21)N(C)C (stereo unspecified),–,inactive
O[C@@H](c1cc(C(F)(F)F)nc2c(C(F)(F)F)cccc12)[C@H]1CCCCN1,inactive: -21.9%,–
O[Si](CCCN1CCCCC1)(c1ccc(F)cc1)C1CCCCC1 (stereo unspecified),inactive: -7.34%,–
c1ccc(N2CCN(CCCOc3ccc4c(c3)OCO4)CC2)cc1,inactive: 5.92%,–
N[C@H](Cc1cc(I)c(Oc2ccc(O)c(I)c2)c(I)c1)C(=O)O,inactive: -0.141% [at 21.6 µM],–
C=CCn1c(SCC(=O)NC2CCCC2)nc2scc(-c3ccco3)c2c1=O,–,active: 12.6 µM
CCC1CN(S(=O)(=O)c2ccc3c(c2)NC(=O)CC(=O)N3)c2cc(Cl)ccc2O1 (stereo unspecified),–,active: 1.58 µM
C[C@@H](NC(=O)c1cc2c([nH]c3ccccc32)c(-c2ccccc2)n1)C(=O)O,inactive: 4.41%,–
COc1ccc(-c2coc3cc(O)cc(O)c3c2=O)cc1,–,inactive
CC(C)(Cc1ccc(O)cc1)NC(=O)CC(=O)N=Nc1c(O)[nH]c2cc(Br)ccc12,–,active: 11.2 µM
CC(C)(c1cc(Br)c(O)c(Br)c1)c1cc(Br)c(O)c(Br)c1,inactive: 1.02%,–

SMILES,"activity change, negative = inhibition",Potency
COCOc1cc(OC)ccc1C(=O)/C=C\c1ccc2c(c1)OCO2,inactive: 2.68% [at 12.8 µM],–
CCc1cc(Cl)c(OC)c(C(=O)NC[C@@H]2CCCN2CC)c1O,inactive: -19% [at 21.6 µM],–
CC12CCC=CC1C(c1ccc(C(F)(F)F)cc1)N(Cc1ccccc1)C2=O (stereo unspecified),inactive: -2.41%,–
Oc1cccc(NC(=S)N=Nc2c(O)[nH]c3ccc(Br)cc23)c1,–,active: 7.94 µM
COc1cc(CNC(=O)CCCCCCC(C)C)ccc1O,–,inactive
COc1ccc(C2Sc3ccccc3N(CCN(C)C)C(=O)C2OC(C)=O)cc1 (stereo unspecified),inactive: -8.14%,–
Cc1cccc(-c2nc(Nc3ccc(N4CCOCC4)cc3)c3ccccc3n2)c1,–,active: 2.82 µM
CC(=O)Oc1ccc(C(c2ccc(OC(C)=O)cc2)c2ccccn2)cc1,–,inactive
CCO[C@@H]1OC(C(=O)N2CCN(Cc3ccc4c(c3)OCO4)CC2)=C[C@H](c2ccc(Br)cc2)[C@H]1CCCO,inactive: -18.5%,–
CC(=O)Nc1ccc(OC[C@@H](O)CNC(C)C)cc1,inactive: -1.55%,–
CN1CCN(C(=O)C2=C[C@H](c3csc4ccccc34)C[C@H](OCc3ccc(CO)cc3)O2)CC1,inactive: -26.6%,–
COC(=O)[C@@H]1C[C@@H]2CC[C@@H](O)C[C@@H]2N1Cc1ccccc1OS(=O)(=O)c1ccc(C)cc1,–,inactive
OCCN1CCN(CCC=C2c3ccccc3Sc3ccc(Cl)cc32)CC1,inactive: 4.99% [at 21.6 µM],–
CN1CCN(Cc2nc3ccccc3c(=O)n2Cc2nc(-c3ccc4ccccc4c3)cs2)CC1,–,active: 11.2 µM
COc1ccc(Nc2nc(-c3cccs3)nc3ccccc23)cc1,–,active: 1.12 µM
NC1=NC[C@H](Cc2ccc(O)cc2)N1CCc1cc(C(F)(F)F)cc(C(F)(F)F)c1,inactive: -19.9%,–
COc1ccc(C(CC(=O)N2CCCCC2)c2c(OC)cc(OC)c3ccc(=O)oc23)cc1 (stereo unspecified),inactive: 3.24%,–
O=C(Nc1ccccc1)C1=C[C@H](c2ccc(Br)cc2)C[C@H](OCc2ccc(CO)cc2)O1,inactive: 18.4%,–
O=C1C(Nc2ccccc2)=CC(=O)c2ncccc21,inactive: -13.9%,–
CC1=NN(c2ccccc2)C(=O)C1/C=C1/NC(=S)NC1=O (stereo unspecified),inactive: 2.59%,–
O=C1N=C(O)CN1/N=C/c1ccc(-c2ccc([N+](=O)[O-])cc2)o1,inactive: -2.01%,–
COc1cc2c(cc1O)CCC1C2CC[C@]2(C)[C@@H](O)CC[C@@H]12 (stereo partly specified),inactive: 11.2%,–

SMILES,"activity change, negative = inhibition",Potency
Cc1ccc(CNc2nc(-c3cccs3)nc3ccccc23)cc1,–,active: 14.1 µM
COC(=O)[C@H]1[C@H]2C[C@H]3c4[nH]c5ccccc5c4CCN3C[C@H]2CC[C@@H]1O,–,inactive
O[C@@H]1[C@@H]2c3cc4c(cc3CN3CCC(=C[C@@H]1O)[C@H]23)OCO4,inactive: 8.86% [at 21.6 µM],–
Cc1ccc(C(=O)Cn2c3c(sc2=N)CCCC3)cc1,inactive: 17.8%,–
Nc1nc(NCC2CCC(CNS(=O)(=O)c3cccc4ccccc34)CC2)nc2ccccc12 (stereo unspecified),inactive: -14%,–
CCN(CC)CCOCCOC(=O)C1(c2ccccc2)CCCC1,–,inactive
CCN1C(=O)N(S(=O)(=O)c2ccc(C)cc2)[C@@H](c2ccccc2)C(C(=O)OC)=C1C,inactive: 4.19% [at 12.8 µM],–
Cc1ccc(OCC(O)C(C)NC(C)C)c2c1CCC2 (stereo unspecified),–,inactive
CC(C(O)c1ccc(O)cc1)N1CCC(Cc2ccccc2)CC1 (stereo unspecified),–,inactive
CCCCC(CC)CN=C(N)NC(N)=NCCCCCCN=C(N)NC(N)=NCC(CC)CCCC (stereo unspecified),inactive: -25.8%,–
S=C(NCc1ccncc1)Nc1ccc(Br)cc1,–,active: 17.8 µM
CCOC(=O)C1=C(N)Oc2ccc(Br)cc2C1C(C#N)C(=O)OCC (stereo unspecified),–,inactive
O=c1cc(-c2ccccc2Cl)oc2c(Br)ccc(O)c12,inactive: 15.8%,–
CCOC(=O)c1c(CSc2ccccc2)n(C)c2cc(Br)c(OCC(O)CNC(CO)(CO)CO)cc12 (stereo unspecified),–,active: 14.1 µM
CCC1CC=CC2C1C(=O)N(Cc1ccccc1)C2c1ccc(OC)c(Cl)c1 (stereo unspecified),inactive: 2.42%,–
COc1cc([C@H]2Oc3cc([C@H]4Oc5cc(O)cc(O)c5C(=O)[C@@H]4O)ccc3O[C@@H]2CO)ccc1O,inactive: -24%,–
COC(=O)[C@H]1[C@@H]2C[C@@H]3c4[nH]c5ccccc5c4CCN3C[C@H]2CC[C@H]1O,inactive: -3.84%,–
C=C1O[C@@](CO)(n2cnc3c(N)ncnc32)[C@H](O)[C@@H]1O,inactive: 0.407%,–
CCCC1OC2CC3C4CCC5=CC(=O)C=CC5(C)C4C(O)CC3(C)C2(C(=O)CO)O1 (stereo unspecified),inactive: -2.49%,–
C=C1C(c2ccc(C)cc2)=CCc2cc(C)cc(C)c21,inactive: -10.4%,–
NC(N)=N/N=C/c1ccc(OCc2ccccc2Cl)cc1,–,active: 22.4 µM
N#Cc1ccc(C23CC4(C2)[C@H](CN(P(=O)(c2ccccc2)c2ccccc2)[C@@H]4c2ccccc2)C3c2ccc(Cl)nc2)cc1 (stereo partly specified),inactive: 13.9%,–

SMILES,"activity change, negative = inhibition",Potency
CN1CCN(C(=O)/C(=C/c2cccs2)NC(=O)c2cccs2)CC1,inactive: -1.42%,–
CCOc1ccc(C(C)=O)cc1COc1ccc(-c2nnco2)cc1,–,active: 11.2 µM
c1ccc(-c2nc(NC3CCCC3)c3ccccc3n2)cc1,–,active: 15.8 µM
NC[C@@H]1O[C@H](C23CC4CC(CC(C4)C2)C3)Cc2c1ccc(O)c2O,–,inactive
OCCNc1nc(Nc2ccccc2)nc(Nc2ccccc2)n1,–,active: 11.2 µM
C/C=C\C[C@@H](C)[C@@H](O)[C@H]1C(=O)N[C@@H](CC)C(=O)N(C)CC(=O)N(C)[C@@H](CC(C)C)C(=O)N[C@@H](C(C)C)C(=O)N(C)[C@@H](CC(C)C)C(=O)N[C@@H](C)C(=O)N[C@H](C)C(=O)N(C)[C@@H](CC(C)C)C(=O)N(C)[C@@H](CC(C)C)C(=O)N(C)[C@@H](C(C)C)C(=O)N1C,inactive: -18.1%,–
Cc1cc2nc3c(=O)[nH]c(=O)nc-3n(C[C@H](O)[C@H](O)[C@H](O)CO)c2cc1C,inactive: 2.13%,–
Cc1ccccc1Nc1nc(NCc2ccco2)c2ccccc2n1,–,active: 20 µM
Oc1cc2c(cc1O)C1c3ccc(O)c(O)c3OCC1(O)C2 (stereo unspecified),inactive: 5.27%,–
C=CCCN(C1CCCC1)S(=O)(=O)c1ccccc1Br,inactive: -7.75%,–
C#CCOCCOCCOCCNc1nc(N2CCN(C(=O)CCCCCCCCCCNC(=O)[C@@H](CCSC)n3cc(CCO)nn3)CC2)nc(N2CCN(C(=O)CCCCCCCCCCNC(=O)[C@H](CCCN=C(N)N)n3cc(C[C@@H](C)CC)nn3)CC2)n1,–,active: 7.94 µM
Cc1cc(C)c2nc(N(CCCN(C)C)C(=O)c3ccc(S(=O)(=O)N4CCCCCC4)cc3)sc2c1,–,active: 15.8 µM
Cn1cc(CN(CCCN2CCOCC2)C(=S)Nc2cccc(Cl)c2)c2ccccc21,–,active: 10 µM
C#CCNC(=O)C1=C[C@@H](C(C)(C)C)C[C@@H](OCc2ccc(CO)cc2)O1,inactive: 28.5%,–
CN1CCN(CCc2ccc(Cl)c(Cl)c2)CC1,inactive: -16%,–
O=C1NC[C@H](Cc2ccc(O)cc2)N(CC2CCCCC2)C1=O,inactive: -0.899%,–
N[C@@H](Cc1cc(I)c(Oc2ccc(O)c(I)c2)c(I)c1)C(=O)O,–,inactive
COc1cc(/C=N/N=C(N)N)ccc1OCc1ccc(Cl)cc1,–,active: 7.94 µM
CCCCCCNC(=O)Nc1ccc(S(=O)(=O)Nc2ccc(CCNC[C@H](O)COc3ccc(O)cc3)cc2)cc1,–,active: 7.94 µM
C[C@@H]1C(=O)O[C@H]2[C@H](O)[C@@]34[C@H]5C[C@@H](C(C)(C)C)[C@]36[C@@H](OC(=O)[C@@H]6O)O[C@@]4(C(=O)O5)[C@@]12O,inactive: 0.987%,–
